The other results are listed elsewhere or left out.
Assays:
Experiment in all cases: glycan array binding signal (z-score within array); higher = stronger binding
Conditions in all cases: glycan notation: IUPAC condensed, linker removed
[1] = target: GlcNAc(b1-2)Gal(b1-3)GalNAc
In short: (§1)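 Glycan array data came from 3228 arrays in the Consortium for Functional Glycomics database, and only arrays with an available protein sequence were kept. Glycan names were put into IUPAC-condensed notation, and columns mapping to the same glycan were averaged. The binding signal is a within-array Z-score, averaged across arrays of one protein sequence run at different concentrations or buffers and across linkers. A negative Z-score can be read as non-binding.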

[2] = target: GlcNAc(b1-2)Man(a1-3)[GlcNAc(b1-2)Man(a1-6)]Man(b1-4)GlcNAc(b1-4)GlcNAc
In short: as §1

[3] = target: GlcNAc(b1-2)Man(a1-3)[GlcNAc(b1-2)Man(a1-6)]Man(b1-4)GlcNAc(b1-4)[Fuc(a1-6)]GlcNAc
In short: as §1

[4] = target: GlcNAc(b1-2)Man(a1-3)[GlcNAc(b1-4)][GlcNAc(b1-2)Man(a1-6)]Man(b1-4)GlcNAc(b1-4)GlcNAc
In short: as §1

[5] = target: GlcNAc(b1-2)Man(a1-3)[GlcNAc(b1-4)][GlcNAc(b1-2)Man(a1-6)]Man(b1-4)GlcNAc(b1-4)[Fuc(a1-6)]GlcNAc
In short: as §1

[6] = target: GlcNAc(b1-2)[GlcNAc(b1-4)]Man(a1-3)[GlcNAc(b1-2)Man(a1-6)]Man(b1-4)GlcNAc(b1-4)GlcNAc
In short: as §1

[7] = target: GlcNAc(b1-2)[GlcNAc(b1-4)]Man(a1-3)[GlcNAc(b1-4)][GlcNAc(b1-2)Man(a1-6)]Man(b1-4)GlcNAc(b1-4)GlcNAc
In short: as §1

[8] = target: GlcNAc(b1-2)[GlcNAc(b1-4)]Man(a1-3)[GlcNAc(b1-4)][GlcNAc(b1-2)[GlcNAc(b1-6)]Man(a1-6)]Man(b1-4)GlcNAc(b1-4)GlcNAc
In short: as §1

[9] = target: GlcNAc(b1-2)[GlcNAc(b1-4)]Man(a1-3)[GlcNAc(b1-4)][GlcNAc(b1-2)[GlcNAc(b1-6)]Man(a1-6)]Man(b1-4)GlcNAc(b1-4)[Fuc(a1-6)]GlcNAc
In short: as §1

[10] = target: GlcNAc(b1-2)[GlcNAc(b1-6)]Man(a1-6)[GlcNAc(b1-2)Man(a1-3)]Man(b1-4)GlcNAc(b1-4)GlcNAc
In short: as §1

[11] = target: GlcNAc(b1-2)[GlcNAc(b1-6)]Man(a1-6)[GlcNAc(b1-2)Man(a1-3)]Man(b1-4)GlcNAc(b1-4)[Fuc(a1-6)]GlcNAc
In short: as §1

[12] = target: GlcNAc(b1-2)[GlcNAc(b1-6)]Man(a1-6)[GlcNAc(b1-4)][GlcNAc(b1-2)Man(a1-3)]Man(b1-4)GlcNAc(b1-4)GlcNAc
In short: as §1

GlcNAc(b1-3)Fuc = target: GlcNAc(b1-3)Fuc
In short: as §1

GlcNAc(b1-3)Gal = target: GlcNAc(b1-3)Gal
In short: as §1

[13] = target: GlcNAc(b1-3)Gal(b1-3)GalNAc
In short: as §1

GlcNAc(b1-3)Gal(b1-4)Glc = target: GlcNAc(b1-3)Gal(b1-4)Glc
In short: as §1

[14] = target: GlcNAc(b1-3)Gal(b1-4)GlcNAc
In short: as §1

[15] = target: GlcNAc(b1-3)Gal(b1-4)GlcNAc(b1-2)Man(a1-3)[GlcNAc(b1-3)Gal(b1-4)GlcNAc(b1-2)Man(a1-6)]Man(b1-4)GlcNAc(b1-4)GlcNAc
In short: as §1

[16] = target: GlcNAc(b1-3)Gal(b1-4)GlcNAc(b1-2)Man(a1-3)[GlcNAc(b1-3)Gal(b1-4)GlcNAc(b1-2)Man(a1-6)]Man(b1-4)GlcNAc(b1-4)[Fuc(a1-6)]GlcNAc
In short: as §1

[17] = target: GlcNAc(b1-3)Gal(b1-4)GlcNAc(b1-2)[GlcNAc(b1-3)Gal(b1-4)GlcNAc(b1-6)]Man(a1-6)[GlcNAc(b1-3)Gal(b1-4)GlcNAc(b1-2)Man(a1-3)]Man(b1-4)GlcNAc(b1-4)GlcNAc
In short: as §1

[18] = target: GlcNAc(b1-3)Gal(b1-4)GlcNAc(b1-3)Gal(b1-4)GlcNAc
In short: as §1

[19] = target: GlcNAc(b1-3)Gal(b1-4)GlcNAc(b1-3)Gal(b1-4)GlcNAc(b1-2)Man(a1-3)[GlcNAc(b1-3)Gal(b1-4)GlcNAc(b1-3)Gal(b1-4)GlcNAc(b1-2)Man(a1-6)]Man(b1-4)GlcNAc(b1-4)GlcNAc
In short: as §1

B1: rEtpA (Escherichia coli) (protein)
chain: MNRIYKLKFDKRRNELVVVSEITTGVGNAKATGSVEGEKSPRRGVRAMALSLLSGMMIMAHPAMSANLPTGGQIVAGSGSIQTPSGNQMNIHQNSQNMVANWNSFDIGKGNTVQFDQPSSSAVALNRVVGGGESQIMGNLKANGQVFLVNPNGVLFGEGASVSTSGFVASTRDIKNDDFMNRRYTFSGGQKAGAAIVNQGELTTNAGGYIVLAADRVSNSGTIRTPGGKTVLAASERITLQLDNGGLMSVQVTGDVVNALVENRGLVSARDGQVYLTALGRGMLMNTVLNVSGVVEASGMHRQDGNIVLDGGDSGVVHLSGTLQADNASGQGGKVVVQGKNILLDKGSNITATGGQGGGEVYVGGGWQGKDSNIRNADKVVMQGGARIDVSATQQGNGGTAVLWSDSYTNFHGQISAKGGETGGNGGRVETSSHGNLQAFGTVSASAKKGKAGNWLLDSADITIVNGSNVSKTETTQSPPHTQFAPTAAGSAVSNTSINNRLNNGTSVTILTHRTRTGTAQGGNITVNAAINKSNGSDVNLTLQAGGNITVNNSITSTEGKLNVNLSGARTSNGSITISNNANITTNGGDITVGTTNTSNRVNISINNTTLNASNGNIQLTGTGTDSGILFAGNNRLTASNIALTGNSTSGNAINLTGTATLNATNNITLTGSSTSGNAINLKGNNTLTASNITLTGESTSGNAINLTDTTGTTTLNATNNITMQGTRVQIKHSNITAGNFALNATVAGSEISNTTLTATNNINLAAKTNSASSGVYLKDARITSTNGSITANGTATANGKATHLDGNVTLNASNGRIKLTGNGHGSASGILFAGNNRLTASNIALTGNSTSGNAINLTGTATLNATNDITLTGSSTSGNAINLTGTATLNATNNITLTGSSTSGNAINLKGNNTLTASNITLTGESTSGNAINLTDTTGTTTLNATNNITMQGTRVQIKHSNITAGNFALNATVAGSEISNTTLTATNNINLAAKTNSASSGVYLKDARITSTNGSITANGTATANGKATHLDGNVTLNASNGRIKLTGNGHGSASGILFAGNNRLTASNIALTGNSTSGNAINLTGTATLNATNDITLTGSSTSGNAINLTGTATLNATNNITLTGSSTSGNAINLKGNNTLTASNITLTGESTSGNAINLTDTTGTTTLNATNNITMQGTRVQIKHSNITAGNFALNATVAGSEISNTTLTATNNINLAAKTNSASSGVYLKDARITSTNGSITANGTATANGKATHLDGNVTLNASNGRIKLTGNGHGSASGILFAGNNRLTASNIALTGNSTSGNAINLTGTATLNATNDITLTGSSTSGNAINLTGTATLNATNNITLTGSSTSGNAINLKGNNTLTASNITLTGESTSGNAINLTDTTGTTTLNATNNITMQGTRVQIKHSNITAGNFALNATVAGSEISNTTLTATNNINLAAKTNSASSGVYLKDARITSTNGSITTNGTATANGKATHLDGNVTLNASNGRIKLTGNGHGSASGILFAGNNRLTASNIALTGNSTSGNAINLTGTATLNATNDITLTGSSTSGNAINLTGTATLNATNNITLTGSSTSGNAINLKGNNTLTASNITLTGESTSGNAINLTDTTGTTTLNATNNITMQGTRVQIKHSNITAGNFALNATVAGSEISNTTLTATNNINLAAKTNSASSGVYLKDARITSTNGSITANGTAPANDNATYLDGNVTLNASNGSIKLTGNGNGSTSGILFAGNNTLTASNITLTGNSEVYWQKLGPEQKLISEEDLNSAVDHHHHHH
glycan array binding signal (z-score) [1]: -0.279 | glycan array binding signal (z-score) [2]: -0.317 | glycan array binding signal (z-score) [3]: -0.396 | glycan array binding signal (z-score) [4]: -0.259 | glycan array binding signal (z-score) [5]: -0.417 | glycan array binding signal (z-score) [6]: -0.323 | glycan array binding signal (z-score) [7]: 1.45 | glycan array binding signal (z-score) [8]: -0.311 | glycan array binding signal (z-score) [9]: -0.319 | glycan array binding signal (z-score) [10]: -0.317 | glycan array binding signal (z-score) [11]: -0.327 | glycan array binding signal (z-score) [12]: -0.439 | glycan array binding signal (z-score) (GlcNAc(b1-3)Fuc): -0.018 | glycan array binding signal (z-score) (GlcNAc(b1-3)Gal): -0.454 | glycan array binding signal (z-score) [13]: -0.309 | glycan array binding signal (z-score) (GlcNAc(b1-3)Gal(b1-4)Glc): -0.338 | glycan array binding signal (z-score) [14]: -0.306 | glycan array binding signal (z-score) [15]: -0.424 | glycan array binding signal (z-score) [16]: -0.368 | glycan array binding signal (z-score) [17]: -0.332 | glycan array binding signal (z-score) [18]: -0.428 | glycan array binding signal (z-score) [19]: -0.311

Source: the supplement of paper PMC8728848
